# The campaign covered roughly 390,000 compounds. About 4,700 (1.2%) were called active. Inconclusive results, whose numbers are uncertain, are shown with a selection of clear calls. Calls come from the whole dose curve; as a rule, active = well fitted inhibition curve with a large enough effect; inconclusive = small, poorly fitted or top-dose-only effect, or another doubt; inactive = no such curve, though single readings can be large or run the other way. A potency beside an inconclusive call is a rough fit, not a confirmed value.
# Target: DNA polymerase eta (Homo sapiens) (UniProt Q9Y253)
# Assay: qHTS for Inhibitors of Polymerase Eta
# Conditions: recombinant Pol eta, fluorescent DNA replication assay; series mostly up to 114 µM
# How it was run: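 Pol eta (10 nM) was preincubated with compounds for 15 min at room temperature, after which fluorescent replication substrate (50 nM final) was added to start the reaction. Fluorescence was read kinetically at 0 and 10 min.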
# Potency is the fitted concentration of half-maximal effect; tags give direction and shape of the fitted curve.
# UniProt Q9Y253, sequence (Q9Y253 whole entry, looked up): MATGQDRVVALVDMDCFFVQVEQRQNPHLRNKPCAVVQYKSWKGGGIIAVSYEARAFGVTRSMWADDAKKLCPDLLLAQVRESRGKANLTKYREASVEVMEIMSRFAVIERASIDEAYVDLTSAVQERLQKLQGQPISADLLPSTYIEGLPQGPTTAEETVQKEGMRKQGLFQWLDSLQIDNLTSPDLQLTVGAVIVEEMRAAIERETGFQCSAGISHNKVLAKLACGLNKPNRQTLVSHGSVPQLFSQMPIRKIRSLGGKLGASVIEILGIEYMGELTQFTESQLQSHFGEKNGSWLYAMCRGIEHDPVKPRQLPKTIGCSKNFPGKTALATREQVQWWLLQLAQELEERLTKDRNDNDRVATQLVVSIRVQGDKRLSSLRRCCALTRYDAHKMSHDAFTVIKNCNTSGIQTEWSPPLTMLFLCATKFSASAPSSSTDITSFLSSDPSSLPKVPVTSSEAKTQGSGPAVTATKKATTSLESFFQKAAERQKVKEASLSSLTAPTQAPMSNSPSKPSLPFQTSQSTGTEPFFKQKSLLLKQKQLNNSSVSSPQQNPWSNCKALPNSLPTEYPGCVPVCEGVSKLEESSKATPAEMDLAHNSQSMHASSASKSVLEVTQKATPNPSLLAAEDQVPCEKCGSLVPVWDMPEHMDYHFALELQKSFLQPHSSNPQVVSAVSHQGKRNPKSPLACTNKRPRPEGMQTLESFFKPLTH
row,Compound,Potency
1,Cc1ccc(S(=O)(=O)c2nc(-c3cccs3)oc2SCC(=O)Nc2cc(C)cc(C)c2)cc1,"inconclusive: 89.1 µM [inhibitor, single point]"
2,CCOc1ccc2oc(=O)cc(CN3CCN(Cc4ccc(C)cc4)CC3)c2c1,inactive
3,O=C(O)CCN1C(=O)/C(=C\c2ccncc2)SC1=S,inactive
4,O=C(NN=c1c(=O)c2ccccc2c1=O)c1ccccc1,"inconclusive: 89.1 µM [inhibitor, single point]"
5,Oc1[nH]c(=S)sc1/C=C1\C(c2ccccc2)=Nc2ccccc21,"inconclusive: 14.1 µM [inhibitor, partial curve]"
6,CCc1cc2c(-c3ccccc3)cc(=O)oc2cc1OCC(C)=O,inactive
7,O=[N+]([O-])c1cccc(N/N=C/c2cccc(O)c2O)c1,"inconclusive: 22.4 µM [inhibitor, full curve, poor fit]"
8,O=C(OCn1ncc(Br)c(Br)c1=O)c1ccc(F)cc1,"inconclusive: 28.2 µM [inhibitor, partial curve]"
9,COC(=O)CC1Oc2ccc(F)cc2-n2cc(-c3ccc(C)cc3)nc21 (configuration not stated),inactive
10,CCOC(=O)C1=C(C)Nc2ccccc2N=C1NC(=O)c1cccc(S(=O)(=O)N(C)C)c1,"inconclusive: 79.4 µM [inhibitor, partial curve, poor fit]"
11,COc1ccc(-c2noc(-c3ccc(N4CCCCC4C)c([N+](=O)[O-])c3)n2)cc1OC (configuration not stated),inactive
12,Cc1ccc(NC(=O)c2ccc(NCCc3ccccc3)c([N+](=O)[O-])c2)cc1F,inactive
13,O=C(N/N=C/c1cc(Br)c(Br)o1)c1cccnc1,active: 11.2 µM
14,N#Cc1ccc(OCC(=O)Nc2ccccc2NS(=O)(=O)c2cccs2)cc1,"inconclusive: 35.5 µM [inhibitor, partial curve, poor fit]"
15,COc1cc(/C=C/C(=O)N2CCN(C)CC2)cc(S(=O)(=O)N2CCc3ccccc32)c1OC,"inconclusive: 100 µM [inhibitor, partial curve, poor fit]"
16,COc1ccccc1OCCCOc1cccc(/C=C2\SC(=O)NC2=O)c1,"inconclusive: 89.1 µM [inhibitor, partial curve, poor fit]"
17,Cc1ccc(-c2nn3c(C)nnc3s2)cc1NC(=O)c1ccc(-c2ccc(Cl)cc2Cl)o1,"inconclusive: 50.1 µM [inhibitor, partial curve, poor fit]"
18,NS(=O)(=O)c1ccc(NC(=O)COc2ccc(C(=O)c3ccc(F)cc3)cc2)cc1,"inconclusive: 44.7 µM [inhibitor, partial curve, poor fit]"
19,CCN(CC)CCN(C(=O)c1ccc2c(c1)OCCO2)c1nc2cc(C)cc(C)c2s1,"inconclusive: 79.4 µM [inhibitor, partial curve, poor fit]"
20,Cc1cc(C)cc(OCc2ccc(C(=O)Nc3ccccc3F)o2)c1,inactive
21,CNC(=O)c1c[nH]c2ccc(S(=O)(=O)Nc3cccc(Cl)c3C)cc2c1=O,"inconclusive: 56.2 µM [inhibitor, partial curve, poor fit]"
22,O=C(CSc1nc2ccsc2c(=O)n1CC1CCC(C(=O)O)CC1)c1ccc(F)cc1 (configuration not stated),"inconclusive: 89.1 µM [inhibitor, partial curve, poor fit]"
23,CCOc1ccc(-n2c(SCC(=O)Nc3ccc(F)cc3)nc3c([nH]c4ccccc43)c2=O)cc1,inactive

row,Compound,Potency
1,O=C(O)c1ccc(N2C(=O)c3[nH]nc(-c4ccccc4)c3C2c2ccccc2)cc1 (configuration not stated),inactive
2,CCCCn1c(-c2cc(Cl)ccc2OC)n[nH]c1=S,inactive
3,Cc1ccccc1NCC(=O)N/N=C\c1ccc([N+](=O)[O-])s1,"inconclusive: 100 µM [inhibitor, partial curve, poor fit]"
4,COc1ccc2cc(-c3cc(C(=O)OCC(=O)NC4CCS(=O)(=O)C4)c4ccccc4n3)ccc2c1 (configuration not stated),"inconclusive: 17.8 µM [inhibitor, partial curve]"
5,COc1cc(OC)c(NC(=O)CN(C)S(=O)(=O)c2ccc3[nH]c(=O)oc3c2)cc1Cl,active: 22.4 µM
6,Cc1ccc2c(c1)cc1c(=O)n(CC(=O)N3CCCCC3)nc(C)n12,inactive
7,C=CCn1c(SCc2nc3sc(C(=O)O)c(C)c3c(=O)[nH]2)nnc1-c1ccccc1,active: 31.6 µM
8,COc1ccc2[nH]c(=O)c(-c3nnn(-c4ccc(Cl)nc4)n3)cc2c1,"inconclusive: 17.8 µM [inhibitor, full curve, poor fit]"
9,CCCCCCCCOC(=O)c1ccc(N)cc1,"inconclusive: 3.55 µM [inhibitor, full curve, poor fit]"
10,COc1ccc(S(=O)(=O)Cc2ccc(C(=O)N3CCc4ccccc4C3)o2)cc1,inactive
11,O=C(N/N=C/c1ccc2ccccc2c1)c1ccc(COc2ccc3c(c2)CCC3)o1,active: 10 µM
12,Cc1ccc(/C([O-])=C(/C(=S)NCc2ccco2)[n+]2ccccc2)cc1[N+](=O)[O-],"inconclusive: 44.7 µM [inhibitor, partial curve]"
13,CC[n+]1c(-c2ccc(C)cc2)csc1Nc1c(C)n(C)n(-c2ccccc2)c1=O,"inconclusive: 22.4 µM [inhibitor, partial curve]"
14,CC(C)Sc1ncc(Cl)c(C(=O)Nc2ccc(S(=O)(=O)N(C)c3ccccc3)cc2)n1,"inconclusive: 56.2 µM [inhibitor, partial curve, poor fit]"
15,COC(=O)CCn1cnc2onc(-c3cc(F)cc(F)c3)c2c1=O,inactive
16,O=C1C(Cl)=C(NCc2ccco2)C(=O)c2ccccc21,"inconclusive: 39.8 µM [inhibitor, partial curve, poor fit]"
17,O=c1c(O)c(-c2ccc(O)cc2O)oc2cc(O)cc(O)c12,active: 7.94 µM
18,Nc1ccc(-c2nnc(-c3ccc(-c4ccccc4)cc3)o2)cc1,"inconclusive: 17.8 µM [inhibitor, partial curve, poor fit]"
19,CCOC(=O)C1=C(COC(=O)/C=C/c2ccc(OC)cc2OC)NC(=O)NC1C (configuration not stated),"inconclusive: 17.8 µM [inhibitor, partial curve, poor fit]"
20,COc1ccc(/C=C/C(=O)N2CCN(S(=O)(=O)/C=C/c3ccccc3)CC2)cc1OC,"inconclusive: 11.2 µM [inhibitor, full curve, poor fit]"
21,COc1ccc(C(=O)COC(=O)Cn2c(C)csc2=O)c(OC)c1,"inconclusive: 15.8 µM [inhibitor, full curve]"
22,Nc1nc(Nc2ccccc2)nc(NC2CCCCC2)c1[N+](=O)[O-],inactive
23,CC1CCN(S(=O)(=O)c2ccc3c(c2)CCC(=O)N3CC(=O)Nc2cccc(C#N)c2)CC1,active: 79.4 µM

row,Compound,Potency
1,CC(=O)NC(CC(=O)OCC(=O)c1ccc(NC(=O)CC(C)C)cc1)c1ccccc1 (configuration not stated),"inconclusive: 17.8 µM [inhibitor, partial curve, poor fit]"
2,CCCCNC(=O)CSc1nnc(C)c2c(C)n(-c3ccccc3)nc12,inactive
3,O=C1CC(c2ccc(O)c(O)c2)Oc2cc(O)cc(O)c21 (configuration not stated),active: 22.4 µM
4,O=C(Oc1cccc(F)c1)c1ccc2c(=O)n3c(nc2c1)CCC3,"inconclusive: 25.1 µM [inhibitor, partial curve]"
5,COc1ccc(/C=N\NC(=O)c2ccccc2)cc1COc1ccccc1,"inconclusive: 39.8 µM [inhibitor, partial curve, poor fit]"
6,O=[N+]([O-])c1ccc(Oc2cccnc2)c([N+](=O)[O-])c1,"inconclusive: 11.2 µM [inhibitor, full curve, poor fit]"
7,COc1cc(/C=N/NC(=O)c2nc(-c3ccccc3)n(-c3ccccc3)n2)ccc1O,"inconclusive: 12.6 µM [inhibitor, partial curve, poor fit]"
8,N#CCC(=O)Nc1ccc(C(=O)OCC(=O)NNC(=O)c2cccs2)cc1,"inconclusive: 22.4 µM [inhibitor, full curve]"
9,Cc1ccc(NC(=O)CSc2sc3c(O)cc(=O)[nH]c3c2C#N)c(F)c1,active: 56.2 µM
10,COc1ccccc1Nc1ncccc1C(=O)O,"inconclusive: 39.8 µM [inhibitor, single point]"
11,CCOC(=O)c1ccc(NC(=O)c2ccc(=O)n(Cc3cccc(C)c3)c2)cc1,inactive
12,C=CCn1c(SCC(=O)N2CCCC2)nc2scc(-c3cccs3)c2c1=O,"inconclusive: 25.1 µM [inhibitor, partial curve]"
13,COC(=O)c1ccc(Oc2coc3cc(OCc4ccc([N+](=O)[O-])cc4)ccc3c2=O)cc1,"inconclusive: 28.2 µM [inhibitor, partial curve, poor fit]"
14,CCc1cc(=O)oc2cc(C)cc(OC(C)C(=O)NC(Cc3c[nH]c4ccc(O)cc34)C(=O)O)c12 (configuration not stated),"inconclusive: 17.8 µM [inhibitor, partial curve, poor fit]"
15,O=C(O)c1ccc(N/N=C/c2cc3ccccc3nc2Cl)cc1,active: 44.7 µM
16,Cc1ccc(S(=O)(=O)Nc2cc(Cl)c(O)c3ncccc23)cc1,inactive
17,CCC1CN(C(=O)Nc2ccc(C)c(F)c2)c2ccccc2S1 (configuration not stated),inactive
18,CCOCCCn1c(SCC(=O)NCc2ccco2)nc2c(sc3ccccc32)c1=O,"inconclusive: 25.1 µM [inhibitor, partial curve]"
19,COCc1cc(C)nc(SCC(=O)N2CCC(C)CC2)c1C#N,inactive
20,O=C(C=C1SCCS1)/C=C/c1ccco1,active: 17.8 µM
21,CCCC(=O)NC(=S)Nc1cccc(Cl)c1N1CCCC1,"inconclusive: 89.1 µM [inhibitor, partial curve, poor fit]"

# From PubChem BioAssay AID588591 (National Center for Advancing Translational Sciences (NCATS), 2011)
